# Measurements from PubChem BioAssay AID1345083 (National Center for Advancing Translational Sciences (NCATS), 2018).
# Out of some 94,000 compounds screened, about 6,200 (6.6%) were called active. The inconclusive results got no clear call from the source; some entries with a clear call stand among them for comparison. Calls come from the whole dose curve; as a rule, active = well fitted inhibition curve with a large enough effect; inconclusive = small, poorly fitted or top-dose-only effect; inactive = flat fitted curve, though single readings scatter. Potencies of inconclusive entries are doubtful fits and often do not repeat.
# Assay: Cytotoxic Profiling in HEK 293 Cell Line of Diverse Libraries Using Quantitative High-Throughput Screening; note: nearly all actives have a fitted effect of over 60% in size
# Conditions: HEK 293 viability, ATP luminescence (CellTiter-Glo), 48-72 h; series mostly up to 115 µM
# Outline: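 Cells seeded first (HEK 293, 250 cells/well), then compound added by pintool. Incubation ran 48 or 72 hr at 37 degree Celsius. CellTiter-Glo was added and luminescence imaged after 10 min at room temperature.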
# Potency is the fitted concentration of half-maximal effect; tags give direction and shape of the fitted curve.
row,SMILES,Potency
1,COC(=O)CNC(=O)[C@@H]1CCCN1c1nccc(Nc2ccccc2OC)n1,inactive
2,CNC(=O)c1nc2cccnc2n(CCc2ccccc2)c1=O,"inconclusive: 70.8 µM [inhibitor, partial curve, poor fit]"
3,c1ccc(O[C@H]2COCCN(c3nc4ccccc4s3)C2)cc1,"inconclusive: 112 µM [inhibitor, single point]"
4,CC(C)N1C[C@@H](COc2ccccc2)[C@H](c2ccccc2)[S+]1(=O)[O-],"inconclusive: 79.4 µM [inhibitor, partial curve, poor fit]"
5,COc1cc(-c2ccccc2C#N)cc(OC)c1OC,inactive
6,COc1ccccc1-c1cccc(C(=O)N2CCC[C@H]2C(=O)NCc2ccccn2)c1,inactive
7,CCC1Oc2ccc(NC(=O)C3CC3)cc2CN(Cc2cc(F)cc(F)c2)C1=O (centres undefined),"inconclusive: 50.1 µM [inhibitor, partial curve, poor fit]"
8,O=C1COc2ccc(-c3cncnc3)nc2CN1Cc1ccc(F)cc1,"inconclusive: 100 µM [inhibitor, partial curve, poor fit]"
9,O=C1NC(C(=O)NCC2CCN(Cc3ccc(F)cc3)CC2)Cn2cccc21 (centres undefined),inactive
10,CC[C@@H]1[C@@H](OCc2ccccc2)c2ccccc2[S+](=O)([O-])N1CC(=O)OC,"inconclusive: 22.4 µM [inhibitor, full curve]"
11,COCC(=O)Nc1ccc2c(c1)CN(Cc1ccc(Cl)cc1)C(=O)C(C)O2 (centres undefined),"inconclusive: 79.4 µM [inhibitor, single point]"
12,COCc1ccc2c(c1)c(OC(C)(C)C(=O)NCc1cnccn1)nn2CCC(C)C,"inconclusive: 44.7 µM [inhibitor, full curve]"
13,O=Cc1cccc(N2CCN(C(=O)NC3CCCCC3)CC2=O)c1,"inconclusive: 89.1 µM [inhibitor, partial curve]"
14,CC(C)NC(=O)C[C@@H]1CCNC[C@@H]1Cc1cc(CC2CCCCC2)on1,"inconclusive: 100 µM [inhibitor, partial curve, poor fit]"
15,CNC(=O)c1cc2cc(-c3c(C)noc3C)nc(-c3cccnc3)c2o1,"inconclusive: 100 µM [inhibitor, partial curve]"
16,COc1ccc(CN2CC3(CCN(C(=O)Nc4ccc(OC)c(F)c4)CC3)C2=O)cc1,"inconclusive: 50.1 µM [inhibitor, partial curve, poor fit]"
17,Cn1c(CNC(=O)C2Cn3cccc3C(=O)N2Cc2ccccc2)nc2ccccc21 (centres undefined),"inconclusive: 79.4 µM [inhibitor, partial curve, poor fit]"
18,COc1ccc(-c2cccc(C(=O)N3CCC(NC(=O)c4ccccc4OC)CC3)c2)nn1,active: 28.2 µM
19,CC(C)OCCCNC(=O)CN1CC2CC(C1)[C@H]1CCCC(=O)N1C2 (some centres undefined),inactive
20,CC(C)CNC(=O)c1cc(-c2ccccc2C(F)(F)F)nc2c1cnn2C,"inconclusive: 50.1 µM [inhibitor, partial curve, poor fit]"
21,O=C(c1cccnc1)N1CC(Oc2ccc(-c3noc(-c4ccccc4)n3)cc2)C1,"inconclusive: 7.94 µM [inhibitor, full curve, poor fit]"
22,O=C(NCC1Cn2cccc2C(=O)N1Cc1ccccc1)c1ccccn1 (centres undefined),inactive
23,O=[S+]([O-])(c1ccccc1)N1CC(N2CCc3ccccc32)C1,"inconclusive: 56.2 µM [inhibitor, partial curve, poor fit]"

row,SMILES,Potency
1,CCOC(=O)c1oc2ccc(S(=O)(=O)N3CC4CN(C)CC(C3)O4)cc2c1C,inactive
2,COCCNC(=O)c1cc(C2CC2)nc2c1c(C1CCCN1)nn2-c1ccccc1 (centres undefined),active: 79.4 µM
3,COc1cccc(-c2cccc(C(=O)N3CCCC3C(=O)NCC(F)F)c2)c1 (centres undefined),inactive
4,COc1ccccc1-c1cc(NCC2CCOCC2)c2onc(C)c2n1,"inconclusive: 112 µM [inhibitor, partial curve]"
5,COC(=O)[C@@H]1Cc2c([nH]c3ccccc23)[C@H]2C[C@@H](NCCNC(C)=O)C[C@@H](c3ccccc3F)N21,"inconclusive: 50.1 µM [inhibitor, partial curve, poor fit]"
6,COc1ccc(Cn2c(=O)c(C(=O)NCCSC)nc3cccnc32)cc1,inactive
7,O=C(Cn1nc2c(cc1=O)CCCC2)NCCc1nc(-c2ccccc2)cs1,"inconclusive: 89.1 µM [inhibitor, single point]"
8,COc1ccc(CN2C[C@@H]3C(=O)N(CCN4CCc5ccccc5C4)C(=O)[C@@H]3C2)cc1,"inconclusive: 50.1 µM [inhibitor, partial curve, poor fit]"
9,C[C@H]1[C@@H]2[C@H]3OC(=O)[C@@H](C)[C@@H]3CC[C@@]2(C)CC[C@@H]1NC(=O)C1CCCCC1,active: 100 µM
10,Cc1ccc(C(=O)N2CCc3[nH]nc(C(=O)NCCCc4ccccc4)c3C2)cc1F,"inconclusive: 44.7 µM [inhibitor, partial curve]"
11,CCOC(=O)C1CCN(C(=O)c2cc(Cn3ccnc3C(C)C)[nH]n2)CC1,inactive
12,Cc1ccccc1CN1CCC2(CC1)COCCN2C(=O)OCc1ccccc1,active: 100 µM
13,Cc1ccccc1-c1nccc2c(=O)cc(N(C)C3CCOCC3)oc12,inactive
14,COC[C@@H]1CN(C(=O)c2ccn[nH]2)C[C@H]1c1ccncc1,inactive
15,Cc1noc([C@@H]2CC(F)(F)CN2C(=O)c2ocnc2C)n1,inactive
16,c1cncc(-c2ccnc(NCCc3noc(C4CCCC4)n3)n2)c1,"inconclusive: 56.2 µM [inhibitor, partial curve, poor fit]"
17,O=C(c1ccc(OC2CCN(C(=O)c3ccsc3)CC2)nc1)N1CCOCC1,"inconclusive: 3.98 µM [inhibitor, full curve, poor fit]"
18,COC(=O)CNC(=O)c1nc(-c2ccc(Cl)nc2)c2ccccn12,inactive
19,COc1ccc(CNC(=O)C2CN(C3CCCCC3)C(=O)N2)cc1 (centres undefined),inactive
20,O=C1COc2ccc(NCc3cccs3)nc2CN1Cc1ccc(F)cc1,"inconclusive: 89.1 µM [inhibitor, partial curve, poor fit]"
21,Cc1nnc(-c2cc(-c3cccc(F)c3)ccn2)n1C1CCCCC1,"inconclusive: 70.8 µM [inhibitor, full curve, poor fit]"
22,O=C(NC1CC1)c1ccc(CC2CCN(C(=O)c3ccc4ccccc4n3)CC2)cc1,"inconclusive: 50.1 µM [inhibitor, partial curve, poor fit]"
23,Cc1nnc2ccc(N3CCC(NC(=O)Cc4cccc(Cl)c4)C3)nn12 (centres undefined),inactive

row,SMILES,Potency
1,Cn1cccc1CN1CCCC(COc2ccccc2C(=O)N2CCCCC2)C1 (centres undefined),"inconclusive: 79.4 µM [inhibitor, single point]"
2,CCCCn1c(=O)c(C(=O)N2CCN([S+](=O)([O-])c3ccc(C)cc3)CC2)nc2cccnc21,"inconclusive: 50.1 µM [inhibitor, partial curve, poor fit]"
3,CCS(=O)(=O)N1C[C@@H]2CN(c3nccc(NC)n3)C[C@]2(C(=O)O)C1,inactive
4,COc1cc(-c2ccnc3nc(C4CCCCC4)nn23)cc(OC)c1OC,"inconclusive: 50.1 µM [inhibitor, partial curve, poor fit]"
5,COc1ccc(OC)c(NC(=O)C2CCN(c3cnc4nccnc4c3)CC2)c1,active: 39.8 µM
6,Cn1ncc2c(C(=O)NCC3CCCCCC3)cc(-c3ccccc3F)nc21,active: 31.6 µM
7,Cc1noc(C)c1CN1CCNc2cc(Nc3ccccc3)ncc2C1,"inconclusive: 50.1 µM [inhibitor, partial curve, poor fit]"
8,O=C(C1CCC1)N1CCC(OCc2ccccc2)C1 (centres undefined),inactive
9,COc1ccc(-c2nc(Cn3c(-c4ccc(F)cc4)nc(C)c(CCO)c3=O)c(C)o2)cc1,"inconclusive: 89.1 µM [inhibitor, single point]"
10,O=C(NC1CCN(c2cc(-c3ccccc3)[nH]n2)C1)c1ccc(Br)cc1 (centres undefined),inactive
11,Cc1ccc(OCC(=O)N2CCC3(CC2)CC(OCC2CC2)CCO3)cc1 (centres undefined),"inconclusive: 79.4 µM [inhibitor, single point]"
12,COc1ccc(C(=O)N2CCOC3(CCN([S+](C)(=O)[O-])CC3)C2)cc1,inactive
13,CCn1ncc(N2CCC(NC(=O)c3cccc(OC)c3OC)CC2)cc1=O,inactive
14,Cn1c([C@H]2CCN(S(=O)(=O)c3cccc4cccnc34)C2)nc2ccccc21,"inconclusive: 100 µM [inhibitor, partial curve]"
15,OC[C@@H]1O[C@H](CNCc2cccc(Cl)c2)[C@H](N2CCCC2)[C@@H]1O,inactive
16,COc1nccnc1NC1CCN(C(=O)c2ccccc2C)CC1,inactive
17,COc1ccc(CN2CC(Oc3ccc(F)c(F)c3)C2)cc1,"inconclusive: 112 µM [inhibitor, single point]"
18,Cn1nccc1C(=O)N1CCCCCCNC(=O)[C@@H]2CCC[C@@H]21,inactive
19,O=C1NC(=NC2CCCCC2)C2(CCN(Cc3ccc(F)cc3)CC2)N1c1cccnc1,inactive
20,COc1ccc(N2CCN(C(=O)C3(c4ccc(NC(=O)C(C)C)cc4)CCC3)CC2)cc1,"inconclusive: 63.1 µM [inhibitor, partial curve, poor fit]"
21,COc1ccc(-c2cn3cc(C(=O)NCC(F)(F)F)nc3s2)cc1,"inconclusive: 63.1 µM [inhibitor, partial curve]"
22,O=C(c1cc(Cl)ccc1F)N1CCN(c2cc(C(F)(F)F)ncn2)CC1,"inconclusive: 31.6 µM [inhibitor, partial curve, poor fit]"
23,O=[S+]([O-])(c1cccs1)N1CCC2(CC1)CC(Cc1ccccc1)=NO2,active: 44.7 µM
